Data: the supplement of paper PMC10369915
The other results are listed elsewhere or left out. Cut-off read from the data, not from the text of the source: active = 3.2 or more and inactive = the rest. Most of these values are background signal.

How the values were obtained:
Assay in all cases: enrichment score (SH2-bound / input frequency) (ratio); bacterial display of known human phosphotyrosine sites (pTyr-Var adds point mutants) read by sequencing; higher = stronger binding; tyrosines were phosphorylated by kinases first
Conditions in all cases: peptide library: Human pTyr
[1] = biological target: SHP2 C-SH2 domain E139D
[2] = biological target: SHP2 C-SH2 domain wild-type
[3] = biological target: SHP2 N-SH2 domain L43F
[4] = biological target: SHP2 N-SH2 domain T42A
[5] = biological target: SHP2 N-SH2 domain T52S
[6] = biological target: SHP2 N-SH2 domain wild-type
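Note: displayed peptides selected on beads carrying the immobilized SH2 domain, with library peptides lacking any tyrosine serving as negative controls.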

B1: IRS1_HUMAN_632 (peptide)
chain: GRKGSGDYMPMSPKS
enrichment score [1]: inactive: 0.888 | enrichment score [2]: inactive: 0.728 | enrichment score [3]: inactive: 0.8 | enrichment score [4]: inactive: 0.822 | enrichment score [5]: inactive: 0.87 | enrichment score [6]: inactive: 0.884

B2: ITPR1_HUMAN_2664 (peptide)
chain: KVKDSTEYTGPESYV
enrichment score [1]: inactive: 1.11 | enrichment score [2]: inactive: 0.891 | enrichment score [3]: inactive: 1.34 | enrichment score [4]: inactive: 0.943 | enrichment score [5]: inactive: 0.85 | enrichment score [6]: inactive: 1.14

B3: JAK1_HUMAN_1035 (peptide)
chain: IETDKEYYTVKDDRD
enrichment score [1]: inactive: 1.41 | enrichment score [2]: inactive: 1.48 | enrichment score [3]: inactive: 1.83 | enrichment score [4]: inactive: 1.1 | enrichment score [5]: inactive: 1.38 | enrichment score [6]: inactive: 1.18

B4: KCNA3_HUMAN_187 (peptide)
chain: FSEEIRFYQLGEEAM
enrichment score [1]: inactive: 0.747 | enrichment score [2]: inactive: 0.598 | enrichment score [3]: inactive: 0.732 | enrichment score [4]: inactive: 0.683 | enrichment score [5]: inactive: 0.745 | enrichment score [6]: inactive: 0.692

B5: JAK1_HUMAN_1034 (peptide)
chain: AIETDKEYYTVKDDR
enrichment score [1]: inactive: 1.22 | enrichment score [2]: inactive: 1.28 | enrichment score [3]: inactive: 1.12 | enrichment score [4]: inactive: 0.917 | enrichment score [5]: inactive: 1.07 | enrichment score [6]: inactive: 1.53

B6: IRS2_HUMAN_540_YA (peptide)
chain: GGGGGEFYGAMTMDR
enrichment score [1]: inactive: 0.581 | enrichment score [2]: inactive: 0.557 | enrichment score [3]: inactive: 0.508 | enrichment score [4]: inactive: 0.502 | enrichment score [5]: inactive: 0.71 | enrichment score [6]: inactive: 0.624

B7: JAK1_HUMAN_3 (peptide)
chain: GGGGGMQYLNIKEDC
enrichment score [1]: inactive: 0.887 | enrichment score [2]: inactive: 0.621 | enrichment score [3]: inactive: 0.735 | enrichment score [4]: inactive: 0.821 | enrichment score [5]: inactive: 0.82 | enrichment score [6]: inactive: 0.687

B8: IRS2_HUMAN_675 (peptide)
chain: GSCRSDDYMPMSPAS
enrichment score [1]: inactive: 0.934 | enrichment score [2]: inactive: 0.927 | enrichment score [3]: inactive: 0.811 | enrichment score [4]: inactive: 0.853 | enrichment score [5]: inactive: 1.17 | enrichment score [6]: inactive: 1.08

B9: ITGB7_HUMAN_753 (peptide)
chain: YRLSVEIYDRREYSR
enrichment score [1]: inactive: 1.34 | enrichment score [2]: inactive: 0.936 | enrichment score [3]: inactive: 0.765 | enrichment score [4]: inactive: 1.39 | enrichment score [5]: inactive: 0.969 | enrichment score [6]: inactive: 0.793

B10: ISLR2_HUMAN_719 (peptide)
chain: EFEAGSEYSDRLPLG
enrichment score [1]: inactive: 0.627 | enrichment score [2]: inactive: 0.454 | enrichment score [3]: inactive: 0.595 | enrichment score [4]: inactive: 0.485 | enrichment score [5]: inactive: 0.524 | enrichment score [6]: inactive: 0.599

B11: JAK2_HUMAN_119 (peptide)
chain: VLYRIRFYFPRWYCS
enrichment score [1]: inactive: 0.94 | enrichment score [2]: inactive: 0.842 | enrichment score [3]: inactive: 1.01 | enrichment score [4]: inactive: 0.827 | enrichment score [5]: inactive: 0.988 | enrichment score [6]: inactive: 0.757

B12: KAPCB_HUMAN_69 (peptide)
chain: KHKATEQYYAMKILD
enrichment score [1]: inactive: 2.64 | enrichment score [2]: inactive: 2.68 | enrichment score [3]: inactive: 2.63 | enrichment score [4]: inactive: 2.45 | enrichment score [5]: inactive: 2.47 | enrichment score [6]: active: 3.49

B13: ITPR1_HUMAN_2664_YA (peptide)
chain: KVKDSTEYTGPESAV
enrichment score [1]: inactive: 0.938 | enrichment score [2]: inactive: 0.853 | enrichment score [3]: inactive: 0.978 | enrichment score [4]: inactive: 0.88 | enrichment score [5]: inactive: 1.07 | enrichment score [6]: inactive: 0.912

B14: ALK_HUMAN_1096_YA (peptide)
chain: MTDANPNYCFAGKTS
enrichment score [1]: inactive: 0.815 | enrichment score [2]: inactive: 0.748 | enrichment score [3]: inactive: 0.743 | enrichment score [4]: inactive: 0.758 | enrichment score [5]: inactive: 0.889 | enrichment score [6]: inactive: 0.831

B15: JAK3_HUMAN_904 (peptide)
chain: SLRLVMEYLPSGCLR
enrichment score [1]: inactive: 1.95 | enrichment score [2]: inactive: 1.42 | enrichment score [3]: inactive: 1.63 | enrichment score [4]: inactive: 1.6 | enrichment score [5]: inactive: 1.8 | enrichment score [6]: inactive: 1.83

B16: ALDOA_HUMAN_5_YA (peptide)
chain: GGGMPAQYPALTPEQ
enrichment score [1]: inactive: 0.713 | enrichment score [2]: inactive: 0.526 | enrichment score [3]: inactive: 0.598 | enrichment score [4]: inactive: 0.611 | enrichment score [5]: inactive: 0.578 | enrichment score [6]: inactive: 0.589

B17: IST1_HUMAN_43 (peptide)
chain: ARKEIADYLAAGKDE
enrichment score [1]: inactive: 0.811 | enrichment score [2]: inactive: 0.893 | enrichment score [3]: inactive: 0.654 | enrichment score [4]: inactive: 0.764 | enrichment score [5]: inactive: 0.702 | enrichment score [6]: inactive: 0.756

B18: ITB3_HUMAN_785 (peptide)
chain: STFTNITYRGTGGGG
enrichment score [1]: inactive: 0.823 | enrichment score [2]: inactive: 0.653 | enrichment score [3]: inactive: 0.759 | enrichment score [4]: inactive: 0.635 | enrichment score [5]: inactive: 0.692 | enrichment score [6]: inactive: 0.864

B19: JAK2_HUMAN_972 (peptide)
chain: EYLGTKRYIHRDLAT
enrichment score [1]: inactive: 0.937 | enrichment score [2]: inactive: 0.887 | enrichment score [3]: inactive: 0.751 | enrichment score [4]: inactive: 0.878 | enrichment score [5]: inactive: 1.03 | enrichment score [6]: inactive: 1.08

B20: JAK1_HUMAN_1034_YA (peptide)
chain: AIETDKEYATVKDDR
enrichment score [1]: inactive: 1.19 | enrichment score [2]: inactive: 0.867 | enrichment score [3]: inactive: 0.759 | enrichment score [4]: inactive: 1.03 | enrichment score [5]: inactive: 1.22 | enrichment score [6]: inactive: 1.02

B21: ALK_HUMAN_1278 (peptide)
chain: FGMARDIYRASYYRK
enrichment score [1]: inactive: 0.495 | enrichment score [2]: inactive: 0.553 | enrichment score [3]: inactive: 0.541 | enrichment score [4]: inactive: 0.678 | enrichment score [5]: inactive: 0.615 | enrichment score [6]: inactive: 0.698

B22: ITPR2_HUMAN_2607 (peptide)
chain: KVKDPTEYTGPESYV
enrichment score [1]: inactive: 0.798 | enrichment score [2]: inactive: 0.801 | enrichment score [3]: inactive: 0.934 | enrichment score [4]: inactive: 0.828 | enrichment score [5]: inactive: 0.908 | enrichment score [6]: inactive: 0.936

B23: JUNB_HUMAN_182_YA (peptide)
chain: GPEPPPVYTNLSSAS
enrichment score [1]: inactive: 0.639 | enrichment score [2]: inactive: 0.519 | enrichment score [3]: inactive: 0.6 | enrichment score [4]: inactive: 0.545 | enrichment score [5]: inactive: 0.479 | enrichment score [6]: inactive: 0.693

B24: IRS1_HUMAN_941 (peptide)
chain: EETGTEEYMKMDLGP
enrichment score [1]: inactive: 0.999 | enrichment score [2]: inactive: 0.779 | enrichment score [3]: inactive: 0.918 | enrichment score [4]: inactive: 0.59 | enrichment score [5]: inactive: 1.03 | enrichment score [6]: inactive: 0.884

B25: KCND3_HUMAN_108_YA (peptide)
chain: GKLHAPRYECISAAD
enrichment score [1]: inactive: 1.73 | enrichment score [2]: inactive: 1.66 | enrichment score [3]: inactive: 1.46 | enrichment score [4]: inactive: 1.46 | enrichment score [5]: inactive: 1.76 | enrichment score [6]: inactive: 2.24

B26: JUNB_HUMAN_188_YA (peptide)
chain: VATNLSSYSPASASS
enrichment score [1]: inactive: 0.669 | enrichment score [2]: inactive: 0.671 | enrichment score [3]: inactive: 0.531 | enrichment score [4]: inactive: 0.561 | enrichment score [5]: inactive: 0.732 | enrichment score [6]: inactive: 0.649

B27: IRS2_HUMAN_919 (peptide)
chain: EPKSPGEYINIDFGE
enrichment score [1]: inactive: 1.02 | enrichment score [2]: inactive: 1.1 | enrichment score [3]: active: 4.31 | enrichment score [4]: inactive: 3.12 | enrichment score [5]: active: 3.24 | enrichment score [6]: inactive: 1.15

B28: KCNB1_HUMAN_128_YA (peptide)
chain: AWGIDEIYLESCCQA
enrichment score [1]: inactive: 0.762 | enrichment score [2]: inactive: 0.639 | enrichment score [3]: inactive: 0.755 | enrichment score [4]: inactive: 0.733 | enrichment score [5]: inactive: 0.778 | enrichment score [6]: inactive: 0.667

B29: ALK_HUMAN_1096 (peptide)
chain: MTDYNPNYCFAGKTS
enrichment score [1]: inactive: 1.25 | enrichment score [2]: inactive: 1.16 | enrichment score [3]: inactive: 1.37 | enrichment score [4]: inactive: 0.953 | enrichment score [5]: inactive: 1.26 | enrichment score [6]: inactive: 1.19

B30: JAK2_HUMAN_372_YA (peptide)
chain: FVSLIDGYARLTADA
enrichment score [1]: inactive: 3.16 | enrichment score [2]: active: 8.81 | enrichment score [3]: inactive: 0.559 | enrichment score [4]: inactive: 0.812 | enrichment score [5]: inactive: 0.776 | enrichment score [6]: inactive: 0.732

B31: JAK2_HUMAN_972_YA (peptide)
chain: EALGTKRYIHRDLAT
enrichment score [1]: inactive: 0.829 | enrichment score [2]: inactive: 0.726 | enrichment score [3]: inactive: 0.773 | enrichment score [4]: inactive: 0.843 | enrichment score [5]: inactive: 0.993 | enrichment score [6]: inactive: 1.04

B32: ITGB7_HUMAN_758_YA (peptide)
chain: EIADRREYSRFEKEQ
enrichment score [1]: inactive: 1.09 | enrichment score [2]: inactive: 0.761 | enrichment score [3]: inactive: 0.771 | enrichment score [4]: inactive: 0.718 | enrichment score [5]: inactive: 0.782 | enrichment score [6]: inactive: 0.936

B33: KCNA3_HUMAN_163 (peptide)
chain: FDAILYYYQSGGRIR
enrichment score [1]: inactive: 1.24 | enrichment score [2]: inactive: 0.762 | enrichment score [3]: inactive: 1.15 | enrichment score [4]: inactive: 0.744 | enrichment score [5]: inactive: 0.79 | enrichment score [6]: inactive: 1.25

B34: KAT6A_HUMAN_899 (peptide)
chain: SSAPQEQYGECGEKS
enrichment score [1]: inactive: 1.04 | enrichment score [2]: inactive: 0.79 | enrichment score [3]: inactive: 0.925 | enrichment score [4]: inactive: 0.748 | enrichment score [5]: inactive: 0.953 | enrichment score [6]: inactive: 0.949

B35: KCNB1_HUMAN_128 (peptide)
chain: YWGIDEIYLESCCQA
enrichment score [1]: inactive: 1.34 | enrichment score [2]: inactive: 1.28 | enrichment score [3]: inactive: 1.23 | enrichment score [4]: inactive: 1.25 | enrichment score [5]: inactive: 1.07 | enrichment score [6]: inactive: 1.68

B36: JUP_HUMAN_133 (peptide)
chain: AIVHLINYQDDAELA
enrichment score [1]: inactive: 1 | enrichment score [2]: inactive: 0.669 | enrichment score [3]: inactive: 0.786 | enrichment score [4]: inactive: 0.776 | enrichment score [5]: inactive: 0.791 | enrichment score [6]: inactive: 1.31
